# Results as given in PubChem BioAssay AID686978 (National Center for Advancing Translational Sciences (NCATS), 2013).
# Values joined by “and” are separate entries in the source; they are usually repeats but may differ in a detail not shown here. Equal values may be shown once. Among all 420,000 compounds or so, about 64,000 (15%) were called active. Inconclusive means that the source gave no clear call. Such entries were picked first, then a sample of the others. Calls follow the shape of the dose curve; as a rule, active = well fitted inhibition curve with a large enough effect; inconclusive = small, poorly fitted or top-dose-only effect; inactive = flat fitted curve, though single readings scatter. Potencies of inconclusive entries are left out as doubtful fits.
# Experiment: qHTS for Inhibitors of human tyrosyl-DNA phosphodiesterase 1 (TDP1): qHTS in cells in absence of CPT; also: nearly all actives have a fitted effect of over 55% in size
# Conditions: DT40 Tdp1-/- hTDP1 cells, no CPT, ATP luminescence, 48 h; activity change, negative = growth inhibition: at 46.2 µM (top of the series) unless noted
# How it was run: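 Stably hTDP1-transfected Tdp1-null chicken DT40 cells were treated with library compounds minus camptothecin and grown for at least 48 hr at 37 °C, after which cellular ATP was quantified by luminescence.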
# % is scaled to controls: 0 for no effect and ±100 for the full control effect; potency is read from the fitted curve at half-maximal effect; tags tell the direction and shape of the fitted curve.
Structure (SMILES),"activity change, negative = growth inhibition",Potency
CC1CCN(C(=O)CCS(=O)(=O)c2cc3c(cc2Cl)NC(=O)CO3)CC1,inactive: -21.4%,–
COc1ccc(C(=O)OCC(=O)NC2CCCCCC2)cc1OC,inactive: -11%,–
Cc1csc(Nc2ccccc2)[n+]1-c1ccccc1,–,"inconclusive [inhibitor, single point]"
CCOC(CCNC(=O)c1cc2c(=O)[nH]c3ccccc3c2s1)OCC,–,"inconclusive [inhibitor, single point]"
Cc1ccc(S(=O)(=O)N(C)C)cc1NC(=O)C(C)OC(=O)CC1CC2CCC1C2 (stereo not given),–,"inconclusive [inhibitor, single point]"
Fc1ccc(Nc2nc(SCc3cccc(F)c3)nc3ccccc23)cc1,–,active: 16.4 µM
Cc1cccc(CC(=O)NC2CC(=O)N(c3ccc4c(c3)OCCO4)C2)c1 (stereo not given),inactive: -15.4%,–
CC1=C(CC[C@@H](C)CO)OC2CC3C4CCC5CC(O)CCC5(C)C4CC(=O)C3(C)C12 (stereo not given in full),–,"inconclusive [inhibitor, single point]"
Cc1cc(-c2nn3c(C)nnc3s2)ccc1NC(=O)C(C)(C)C,inactive: -10%,–
O=c1cc(O)n(-c2ccccc2)c(=S)[nH]1,–,"inconclusive [inhibitor, single point]"
O=c1c2cc([N+](=O)[O-])cc([N+](=O)[O-])c2[nH]n1-c1ccccc1,–,"inconclusive [inhibitor, partial curve]"
O=C1C=C(Nc2ccccc2C(=O)O)c2ccccc2C1=O,–,"inconclusive [inhibitor, single point]"
COc1cc(CNc2ncc(-c3ccc(Br)cc3)n2C)cc(OC)c1O,–,"inconclusive [inhibitor, single point]"
CCN(CC)S(=O)(=O)c1ccc(NC(=O)c2nn(C)c3c2CSc2ccccc2-3)cc1,–,active: 18.4 µM
O=Cc1cccc(OCc2cccc3ccccc23)c1,–,active: 2.59 µM
CCOc1ccc(S(=O)(=O)NCCC(=O)NCCOc2ccccc2OC)cc1,–,"inconclusive [inhibitor, partial curve, poor fit]"
CCCCN1C(=O)CC2CCOC21C (stereo not given),inactive: -14.1%,–
Nc1ccc(N2N=C(N3CCCC3)CC2=O)cc1,–,"inconclusive [inhibitor, single point]"
COc1ccccc1N1CCN(C(c2cccs2)C(C)NS(=O)(=O)c2ccccc2)CC1 (stereo not given),–,"inconclusive [inhibitor, single point]"
CCO[C@@H]1OC(C(=O)NCc2ccccc2)=C[C@H](C(C)(C)C)[C@H]1CCCO,–,"inconclusive [inhibitor, partial curve]"
N#CCCn1c(=O)c(-c2cccc(C#N)c2)nc2cnc(Oc3cccc(Cl)c3)nc21,–,"inconclusive [inhibitor, single point]"
CC(C)C(C)NC(=O)CN1C(=O)NC(C)(c2ccc3ccccc3c2)C1=O (stereo not given),inactive: -4.16%,–
CCc1cccc2c(C(O)c3c[nH]c4ccccc34)c[nH]c12 (stereo not given),–,active: 11.2 µM
OCCC1CN(Cc2nc(-c3ccccc3)cs2)CCN1C1CCCC1 (stereo not given),–,"inconclusive [inhibitor, single point]"
CCC(=O)N1CCc2cc(Br)cc(S(=O)(=O)CCC(=O)Nc3ccc(CC)cc3)c21,inactive: 0.428%,–

Structure (SMILES),"activity change, negative = growth inhibition",Potency
Cc1ccc(C(NC(=O)N2CCOCC2)C(Cl)(Cl)Cl)cc1F (stereo not given),inactive: -23.9%,–
CNC(=S)N/N=C(\C)c1ccc2c(c1)OCO2,–,"inconclusive [inhibitor, single point]"
COc1ccc(C2C3=C(COC3=O)Oc3cc4c(cc32)OCO4)cc1OC (stereo not given),–,active: 794 nM and active: 1.46 µM
O=C(NCc1cccc(Cl)c1)c1cccnc1,inactive: -11.3%,–
O=[N+]([O-])c1nccn1C1C=CC(O)C(CO)O1 (stereo not given),inactive: 2.55%,–
CCOC(=O)c1ccc(N2C(=O)c3[nH]nc(-c4ccc(C)cc4)c3C2c2ccc(O)cc2)cc1 (stereo not given),–,"inconclusive [inhibitor, single point]"
CC1(C)CC(C(CC(=O)Nc2nccs2)c2ccccc2)CCO1 (stereo not given),–,active: 18.4 µM
Cn1ccs/c1=N\S(=O)(=O)c1ccc(C(C)(C)C)cc1,inactive: -8.97%,–
Cc1ccccc1CSc1ncc(Cl)c(C(=O)NCc2ccccc2)n1,inactive: -29%,–
COc1ccc(CCNC(=O)c2cc(C3CC3)nc3c2cnn3C(C)C)cc1OC,–,"inconclusive [inhibitor, single point]"
C#CCN1[C@@H]2CCN(C2)c2cc(Br)ccc2S1(=O)=O,–,"inconclusive [inhibitor, single point]"
Cc1ccc(S(=O)(=O)N2CCC(Oc3cccc(C(F)(F)F)c3)CC2)cc1,–,"inconclusive [inhibitor, single point]"
COc1ccccc1-c1cnn2c(NCc3ccccc3)cc(C)nc12,–,"inconclusive [inhibitor, single point]"
Cc1cc2oc(=O)cc(CN3CCOCC3)c2c(C)c1Cl,inactive: -0.283%,–
CCOc1ccc(S(=O)(=O)Nc2cccc(-c3ccc(N4CCCC4)nn3)c2)cc1,–,"inconclusive [inhibitor, single point]"
[O-]/[N+](=C/c1ccc(F)cc1)c1ccc(Cl)cc1,–,active: 9.2 µM
CC1(C)Cc2c(c(N3CCOCC3)nc3sc(C(=O)Nc4ccc(Cl)cc4)c(N)c23)CO1,–,active: 23.1 µM
O=Cc1cccn1-c1ccc2ccccc2c1,inactive: 10.4%,–
Cc1ccc2c(CC(=O)Nc3cccc(C(F)(F)F)c3)coc2c1,–,"inconclusive [inhibitor, single point]"
CCN1CCN(c2ccc(S(=O)(=O)N3CCOCC3)cc2NC(=O)c2ccccc2SC)CC1,inactive: -14.7%,–
O=C(c1ccccc1C(=O)N(c1ccccc1)c1ccccc1)N1CCCCC1,–,"inconclusive [inhibitor, single point]"
CCOC(=O)COc1ccc(/C=C(\C#N)c2nc3ccc(C)cc3[nH]2)cc1OC,inconclusive: -20.2% [inhibitor],–
NNc1nc(NCc2ccccc2)nc(N2CCOCC2)n1,–,"inconclusive [inhibitor, single point]"
COc1ccc(CC2(C)OC(c3ccc([N+](=O)[O-])cc3)=NN2C(C)=O)cc1 (stereo not given),–,"inconclusive [inhibitor, partial curve]"
Cc1ccccc1Cn1c(=N)n(CC(=O)c2ccco2)c2ccccc21,–,active: 16.4 µM

Structure (SMILES),"activity change, negative = growth inhibition",Potency
CC(=O)c1cccc(NC(=O)c2cc(S(=O)(=O)N3CCCCC3)ccc2N2CCOCC2)c1,–,"inconclusive [inhibitor, partial curve, poor fit]"
O=C(Nc1ccc(Cl)c(C(=O)N2CCOCC2)c1)c1ccccc1,–,"inconclusive [inhibitor, partial curve]"
CCC(=O)N1CCC(c2ccc(OC)cc2)=N1,inactive: 0.638%,–
COCC(=O)N(C)c1nnc(-c2ccc([N+](=O)[O-])cc2)s1,inactive: 1.76%,–
O=C(CCn1c(=S)[nH]c2ccccc2c1=O)Nc1cccc(Cl)c1,–,"inconclusive [inhibitor, single point]"
CC(C)(C)c1ncc(S(=O)(=O)c2ccc(C(F)(F)F)cn2)c(N)n1,inactive: -26.6%,–
COc1ccc(CCNC(=O)c2cnn3c2NC(=C2CC2)C=C3C(F)F)cc1OC,–,active: 12.6 µM
O=C(O)Cc1nn(Cc2ccc(Br)cc2F)c(=O)c2ccccc12,–,"inconclusive [inhibitor, single point]"
CCOc1ccc(C(=O)c2ccc([N+](=O)[O-])cc2Cl)cc1,inactive: -19.4%,–
O=C(Oc1ccc2c(=O)c(Cl)coc2c1)c1ccncc1,inconclusive: -30.4% [inhibitor],–
COc1ccc(Nc2nc(-c3ccc4c(c3)NC(=O)CO4)cs2)cc1,–,"inconclusive [inhibitor, single point]"
CCC1CCCCN1Cc1c(O)ccc2c(=O)c(Oc3ccccc3Cl)c(C(F)(F)F)oc12 (stereo not given),–,"inconclusive [inhibitor, single point]"
CCCNC(=O)Nc1nnc(C2CC2)s1,inactive: 5.11%,–
CCOc1ccc(N2CC(C(=O)NC3CCCC3)CC2=O)cc1 (stereo not given),inactive: -1.45%,–
O=C(O)c1cc(N2CCOCC2)nc2ccccc12,inactive: -1.65%,–
COc1ccc(/C(C#N)=C/c2ccccn2)cc1,–,"inconclusive [inhibitor, full curve, poor fit]"
CNC(=S)NNC(=O)c1sc2cc(C(F)(F)F)cnc2c1-c1ccccn1,–,"inconclusive [inhibitor, single point]"
CCN(c1ccccc1)S(=O)(=O)c1ccc(Cl)c(NC(=O)CSc2nc(N)cc(=O)[nH]2)c1,inactive: -23.2%,–
COc1ccc(CCNC(=O)CCC(=O)N2CC(C)Oc3ccc(Cl)cc32)cc1OC (stereo not given),–,"inconclusive [inhibitor, single point]"
Cc1ccc(CNC(=O)c2ccc3c(c2)CCN3S(=O)(=O)c2ccccc2)cc1,–,"inconclusive [inhibitor, single point]"
O=C(Nc1nc2ccc(Cl)cc2s1)C1CC1,–,"inconclusive [inhibitor, single point]"
NC(=O)c1cc(-c2ccccc2)nc(N2CCOCC2)n1,–,active: 11.6 µM
O=C(NC1CCCCC1)c1cc(S(=O)(=O)N2CCN(c3ccccc3)CC2)ccc1Cl,–,"inconclusive [inhibitor, single point]"
O=C(NC(=S)Nc1ccc(Br)cn1)c1cccs1,–,"inconclusive [inhibitor, single point]"
CCOc1ccc(OCC)c(NS(=O)(=O)c2c(C)[nH]c(=O)[nH]c2=O)c1,inactive: -11.1%,–
